# Measurements as given in the supplement of paper PMC8728848.
# The list shows a part of the results.
# B1: SP16664B-bot-474-25-474 (Bacteroides ovatus) (protein)
# chain: CEEDIEIGNKIDESSYLASTQLSGLLLDENTNKNSSVIELRNNEYSTNVVFRLSKLPQKGVDVQIAVEESYAAIYNTIHETDFEVFPAANVKIANNGTFVLAPDDKVTPSVKVTLTAFDGMEEDKTYIVPLTVTSSTEGVTFTETSKHMVLLVQDYRNKPNTNKGEDAVQTVLYFEVNDTNPLNALEFLTESGKYFFDHIVLFAANINWDPEKQRVYLANNENVQFLLDNNDKYLQPLRKAGMKIIISILGNHDEAGVAQLSDMGAREFARELAAYCRAYNLDGVAFDDEYSNSPDLSNPWLASPSAYAGSRLMYECKAVMPEKIVSLYNLGNMYSSSLQVIDGIEPGQYCDYAVADYGGAAGPGTGMTLKQCAGMSIELRRGSGNSSESTARSRKEAGYGYYMFFALDPSLYGSQVYRCQSVCKGLYDETLVYPSYYYKKNSTEREAIN
# What was measured:
# Experiment in all cases: glycan array binding signal (z-score within array); higher = stronger binding
# Conditions in all cases: glycan notation: IUPAC condensed, linker removed
# [1] = biological target: Neu5Ac(a2-6)Gal(b1-4)GlcNAc(b1-3)[Neu5Ac(a2-6)Gal(b1-4)GlcNAc(b1-6)]GalNAc
# In short: (§1)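 Arrays were curated from the Consortium for Functional Glycomics database, 3228 in total, and kept only where the protein sequence was available. Binding is expressed as a within-array Z-score. This score was averaged across arrays of the same protein sequence at different concentrations or buffers and across linkers, and negative values can be read as non-binding.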
# [2] = biological target: Neu5Ac(a2-6)Gal(b1-4)GlcNAc(b1-6)GalNAc
# In short: as §1
# [3] = biological target: Neu5Ac(a2-6)Gal(b1-4)GlcNAc(b1-6)[Gal(b1-3)GlcNAc(b1-3)]Gal(b1-4)Glc
# In short: as §1
# [4] = biological target: Neu5Ac(a2-6)Gal(b1-4)GlcNAc(b1-6)[Gal(b1-3)]GalNAc
# In short: as §1
# [5] = biological target: Neu5Ac(a2-6)Gal(b1-4)GlcNAc6S
# In short: as §1
# Neu5Ac(a2-6)GalNAc = biological target: Neu5Ac(a2-6)GalNAc
# In short: as §1
# [6] = biological target: Neu5Ac(a2-6)GalNAc(b1-4)GlcNAc
# In short: as §1
# [7] = biological target: Neu5Ac(a2-6)GalNAc(b1-4)GlcNAc6S
# In short: as §1
# [8] = biological target: Neu5Ac(a2-6)GlcNAc(b1-4)GlcNAc
# In short: as §1
# [9] = biological target: Neu5Ac(a2-6)GlcNAc(b1-4)GlcNAc(b1-4)GlcNAc
# In short: as §1
# Neu5Ac(a2-8)Neu5Ac = biological target: Neu5Ac(a2-8)Neu5Ac
# In short: as §1
# [10] = biological target: Neu5Ac(a2-8)Neu5Ac(a2-3)Gal(b1-3)GalNAc(b1-4)[Neu5Ac(a2-3)]Gal(b1-4)Glc
# In short: as §1
# [11] = biological target: Neu5Ac(a2-8)Neu5Ac(a2-3)Gal(b1-3)GalNAc(b1-4)[Neu5Ac(a2-8)Neu5Ac(a2-3)]Gal(b1-4)Glc
# In short: as §1
# [12] = biological target: Neu5Ac(a2-8)Neu5Ac(a2-3)Gal(b1-4)Glc
# In short: as §1
# [13] = biological target: Neu5Ac(a2-8)Neu5Ac(a2-3)Gal(b1-4)GlcNAc
# In short: as §1
# [14] = biological target: Neu5Ac(a2-8)Neu5Ac(a2-3)[Gal(b1-3)GalNAc(b1-4)]Gal(b1-4)Glc
# In short: as §1
# [15] = biological target: Neu5Ac(a2-8)Neu5Ac(a2-3)[GalNAc(b1-4)]Gal(b1-4)Glc
# In short: as §1
# [16] = biological target: Neu5Ac(a2-8)Neu5Ac(a2-8)Neu5Ac
# In short: as §1
# [17] = biological target: Neu5Ac(a2-8)Neu5Ac(a2-8)Neu5Ac(a2-3)Gal(b1-4)Glc
# In short: as §1
# [18] = biological target: Neu5Ac(a2-8)Neu5Ac(a2-8)Neu5Ac(a2-3)[Gal(b1-3)GalNAc(b1-4)]Gal(b1-4)Glc
# In short: as §1
# [19] = biological target: Neu5Ac(a2-8)Neu5Ac(a2-8)Neu5Ac(a2-3)[GalNAc(b1-4)]Gal(b1-4)Glc
# In short: as §1
# [20] = biological target: Neu5Ac(a2-8)Neu5Ac(a2-8)Neu5Ac(a2-8)Neu5Ac(a2-3)[GalNAc(b1-4)]Gal(b1-4)Glc
# In short: as §1
# [21] = biological target: Neu5Ac(a2-8)Neu5Gc(a2-3)Gal(b1-4)GlcNAc
# In short: as §1
# [22] = biological target: Neu5Ac(b2-6)Gal(b1-4)GlcNAc
# In short: as §1
# Neu5Ac(b2-6)GalNAc = biological target: Neu5Ac(b2-6)GalNAc
# In short: as §1
# [23] = biological target: Neu5Ac9Ac(a2-3)Gal(b1-3)GlcNAc
# In short: as §1
# [24] = biological target: Neu5Ac9Ac(a2-3)Gal(b1-4)GlcNAc
# In short: as §1
# [25] = biological target: Neu5Ac9Ac(a2-6)Gal(b1-4)GlcNAc
# In short: as §1
# [26] = biological target: Neu5Gc(a2-3)Gal(b1-3)GlcNAc
# In short: as §1
# [27] = biological target: Neu5Gc(a2-3)Gal(b1-3)[Fuc(a1-4)]GlcNAc
# In short: as §1
# Neu5Gc(a2-3)Gal(b1-4)Glc = biological target: Neu5Gc(a2-3)Gal(b1-4)Glc
# In short: as §1
# [28] = biological target: Neu5Gc(a2-3)Gal(b1-4)GlcNAc
# In short: as §1
# [29] = biological target: Neu5Gc(a2-3)Gal(b1-4)GlcNAc(b1-3)Gal(b1-4)GlcNAc(b1-2)Man(a1-3)[Neu5Gc(a2-3)Gal(b1-4)GlcNAc(b1-3)Gal(b1-4)GlcNAc(b1-2)Man(a1-6)]Man(b1-4)GlcNAc(b1-4)GlcNAc
# In short: as §1
# [30] = biological target: Neu5Gc(a2-3)Gal(b1-4)[Fuc(a1-3)]GlcNAc
# In short: as §1
# [31] = biological target: Neu5Gc(a2-6)Gal(b1-4)GlcNAc
# In short: as §1
# Neu5Gc(a2-6)GalNAc = biological target: Neu5Gc(a2-6)GalNAc
# In short: as §1
# [32] = biological target: Neu5Gc(a2-8)Neu5Ac(a2-3)Gal(b1-4)GlcNAc
# In short: as §1
# [33] = biological target: Neu5Gc(a2-8)Neu5Gc(a2-3)Gal(b1-4)GlcNAc
# In short: as §1
binder,measurement,setting,value
B1,glycan array binding signal (z-score),[1],1.34
same,glycan array binding signal (z-score),[2],0.178
same,glycan array binding signal (z-score),[3],-0.321
same,glycan array binding signal (z-score),[4],-0.15
same,glycan array binding signal (z-score),[5],-0.154
same,glycan array binding signal (z-score),Neu5Ac(a2-6)GalNAc,-0.18
same,glycan array binding signal (z-score),[6],0.101
same,glycan array binding signal (z-score),[7],-0.06
same,glycan array binding signal (z-score),[8],-0.371
same,glycan array binding signal (z-score),[9],-0.455
same,glycan array binding signal (z-score),Neu5Ac(a2-8)Neu5Ac,-0.398
same,glycan array binding signal (z-score),[10],-0.141
same,glycan array binding signal (z-score),[11],-0.192
same,glycan array binding signal (z-score),[12],-0.568
same,glycan array binding signal (z-score),[13],-0.41
same,glycan array binding signal (z-score),[14],0.151
same,glycan array binding signal (z-score),[15],0.169
same,glycan array binding signal (z-score),[16],-0.23
same,glycan array binding signal (z-score),[17],0.181
same,glycan array binding signal (z-score),[18],0.289
same,glycan array binding signal (z-score),[19],-0.237
same,glycan array binding signal (z-score),[20],1.28
same,glycan array binding signal (z-score),[21],-0.091
same,glycan array binding signal (z-score),[22],-0.369
same,glycan array binding signal (z-score),Neu5Ac(b2-6)GalNAc,-0.544
same,glycan array binding signal (z-score),[23],0.179
same,glycan array binding signal (z-score),[24],-0.181
same,glycan array binding signal (z-score),[25],-0.485
same,glycan array binding signal (z-score),[26],-0.321
same,glycan array binding signal (z-score),[27],-0.071
same,glycan array binding signal (z-score),Neu5Gc(a2-3)Gal(b1-4)Glc,-0.277
same,glycan array binding signal (z-score),[28],0.21
same,glycan array binding signal (z-score),[29],-0.304
same,glycan array binding signal (z-score),[30],-0.255
same,glycan array binding signal (z-score),[31],-0.171
same,glycan array binding signal (z-score),Neu5Gc(a2-6)GalNAc,-0.249
same,glycan array binding signal (z-score),[32],-0.421
same,glycan array binding signal (z-score),[33],-0.6
